In PMC6084981 one finds binding data, which are given here for six molecules.

The chains behind the UniProt entries cited, without tags or fusion partners.
UniProt P55852: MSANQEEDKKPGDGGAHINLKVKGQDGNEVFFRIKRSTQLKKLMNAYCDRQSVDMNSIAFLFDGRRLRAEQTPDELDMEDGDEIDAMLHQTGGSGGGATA
UniProt Q9FLP6: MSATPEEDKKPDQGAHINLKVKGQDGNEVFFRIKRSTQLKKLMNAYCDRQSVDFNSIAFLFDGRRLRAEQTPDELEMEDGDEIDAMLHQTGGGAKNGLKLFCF

What all share (assay): two-hybrid; GAL4-AD (pGADT7, AH109) and GAL4-BD (pGBKT7, Y187) fusions mated; growth on -Leu-Trp-His with 3 mM 3-amino-1,2,4-triazole
In test [1] the target is SUMO1 fused to GAL4-BD (Arabidopsis) (UniProt P55852).
Test [2] addresses SUMO2 fused to GAL4-BD (Arabidopsis) (UniProt Q9FLP6).
For test [3], the target named is Full-length MOM1 harboring the CMM2 mutations, fused to GAL4-BD (Arabidopsis) (UniProt Q9M658).
Test [4] deals with MOM1 fused to GAL4-BD (pGBKT7) (Arabidopsis) (UniProt Q9M658).

Results are given in words; binding and its absence hold for the method and conditions named. Some results given as binding are weak or reduced against the parent protein; the word gives no strength. Where a sequence is shown, tags or fusion partners need not be part of it.

B1: MOM1-P4 fused to GAL4-AD (domain or fragment, UniProt Q9M658 1660-1860)
chain: TSVAEPHISGSDACEMEISEPGPQVERSTFANLFHEGGVEHSAGVTALVPSLLNNGTEQIAVQPVPQIPFPVFNDPFLHELEKLRRESENSKKTFEEKKSILKAELERKMAEVQAEFRRKFHEVEAEHNTRTTKIEKDKNLVIMNKLLANAFLSKCTDKKVSPSGAPRGKIQQLAQRAAQVSALRNYIAPQQLQASSFPAP
For B1, the binding result in test [1] and in test [2] was “no binding” in each case.

B2: PIAL1 fused to GAL4-AD (protein, UniProt A0A0A7EPL0 1-847)
chain: MVIPATSRFGFRAEFNTKEFQASCISLANEIDAAIGRNEVPGNIQELALILNNVCRRKCDDYQTRAVVMALMISVKSACQLGWFPERETQELLAIIDLMWNGFSCPENVTSCVNSPVTLISQVIERFYPCVKLGHILVSFEAKPESKMMMKDFHISKKMPHSPKQKVGLFVVRTEDISRSNCIVHPQGVSFLLNGKGIDKRVNISMESGPQLPTNVTALLNLGANLLQAIGCFGGSYLIAIAFMDVIPLPNKPLLKDYVHPEVVGSNSDCDIIEGPSRISLSCPISRTRIKLPVKGHVCKHLQCFDFWNYVNMNTRRPSWRCPHCNQSVCYTDIRVDQKLRKILEEVGRNAADVVISADGTWMVETENDEDVELVPETTHDHGDPNSFINLGPTVKNPARDENEMETSTQVEEHNPCLSEIQGPSNDTHRPASDYTMLNQSHTSTNTLPQLPRTLNAFDGQQFVNLPQVINTRDSPASQALPMTFSPTPSPQDILATNAANFGTSMPAAQSSQFQGSHVTSLGNCEGRTSDLMARWNHIYGRVQTQFPPAPLSHHHYSMQNQSPSPAQQRPVPSYIAHPQTFHVNYGENADQRWMPSSIAHPQTLPVNYGGNTNQRPIPSSIAHPQTLPVNYRGNTDHRSTPYSITHLQTLLNYGGNADQRPMPSSITNLQTLPATYGGYAHQRPMSSSITHPRTSPVNYGGTPDQRPMPSSITHPQTLPVSYGGTTDQILNPGGAMGQFSSREFMNLTPANTENWRPQSRMRGSVAPGTGYDHMIIHPTRPVHPQAQTPPAPLSTSYDGADEIQAFIGHPSYPVSNNETQAGTSSLPVAEGLGYSGSFWSMPPETW
On to B2, for which the binding entry in test [3] and in test [4] was “binds” throughout.

B3: MOM1-P3 fused to GAL4-AD (domain or fragment, UniProt Q9M658 1660-2001)
chain: TSVAEPHISGSDACEMEISEPGPQVERSTFANLFHEGGVEHSAGVTALVPSLLNNGTEQIAVQPVPQIPFPVFNDPFLHELEKLRRESENSKKTFEEKKSILKAELERKMAEVQAEFRRKFHEVEAEHNTRTTKIEKDKNLVIMNKLLANAFLSKCTDKKVSPSGAPRGKIQQLAQRAAQVSALRNYIAPQQLQASSFPAPALVSAPLQLQQSSFPAPGPAPLQPQASSFPSSVSRPSALLLNFAVCPMPQPRQPLISNIAPTPSVTPATNPGLRSPAPHLNSYRPSSSTPVATATPTSSVPPQALTYSAVSIQQQQEQQPQQSLSSGLQSNNEVVCLSDDE
For B3, the binding entry in test [1] and in test [2] was “binds” each time.

B4: MOM1-P2 fused to GAL4-AD (domain or fragment, UniProt Q9M658 798-2001)
chain: GEDHIKLSDEESPNIFWSKLLGGKNPMWKYPSDTPQRNRKRVQYFEGSEASPKTGDGGNAKKRKKASDDVTDPRVTDPPVDDDERKASGKDHMGALESPKVITLQSSCKSSGTDGTLDGNDAFGLYSMGSHISGIPEDMLASQDWGKIPDESQRRLHTVLKPKMAKLCQVLHLSDACTSMVGNFLEYVIENHRIYEEPATTFQAFQIALSWIAALLVKQILSHKESLVRANSELAFKCSRVEVDYIYSILSCMKSLFLEHTQGLQFDCFGTNSKQSVVSTKLVNESLSGATVRDEKINTKSMRNSSEDEECMTEKRCSHYSTATRDIEKTISGIKKKYKKQVQKLVQEHEEKKMELLNMYADKKQKLETSKSVEAAVIRITCSRTSTQVGDLKLLDHNYERKFDEIKSEKNECLKSLEQMHDVAKKKLAEDEACWINRIKSWAAKLKVCVPIQSGNNKHFSGSSNISQNAPDVQICNNANVEATYADTNCMASKVNQVPEAENTLGTMSGGSTQQVHEMVDVRNDETMDVSALSREQLTKSQSNEHASITVPEILIPADCQEEFAALNVHLSEDQNCDRITSAASDEDVSSRVPEVSQSLENLSASPEFSLNREEALVTTENRRTSHVGFDTDNILDQQNREDCSLDQEIPDELAMPVQHLASVVETRGAAESDQYGQDICPMPSSLAGKQPDPAANTESENLEEAIEPQSAGSETVETTDFAASHQGDQVTCPLLSSPTGNQPAPEANIEGQNINTSAEPHVAGPDAVESGDYAVIDQETMGAQDACSLPSGSVGTQSDLGANIEGQNVTTVAQLPTDGSDAVVTGGSPVSDQCAQDASPMPLSSPGNHPDTAVNIEGLDNTSVAEPHISGSDACEMEISEPGPQVERSTFANLFHEGGVEHSAGVTALVPSLLNNGTEQIAVQPVPQIPFPVFNDPFLHELEKLRRESENSKKTFEEKKSILKAELERKMAEVQAEFRRKFHEVEAEHNTRTTKIEKDKNLVIMNKLLANAFLSKCTDKKVSPSGAPRGKIQQLAQRAAQVSALRNYIAPQQLQASSFPAPALVSAPLQLQQSSFPAPGPAPLQPQASSFPSSVSRPSALLLNFAVCPMPQPRQPLISNIAPTPSVTPATNPGLRSPAPHLNSYRPSSSTPVATATPTSSVPPQALTYSAVSIQQQQEQQPQQSLSSGLQSNNEVVCLSDDE
For B4, the binding result in test [1] and in test [2] was “binds” in each case.

B5: PIAL2 fused to GAL4-AD (pGADT7) (protein, UniProt F4JYG0 1-760)
chain: MSTAAAARPVAGTGLREKTAASLVNSFRLASVTQRLRYHIQDGAKVDPKEFQICCISFAKGIDFAIANNDIPKKVEEFPWLLKQLCRHGTDVYTKTALMVLMISVKHACHLGWFSDSESQELIALADEIRTCFGSSGSTSPGIKSPGSTFSQIMERFYPFVKLGHVLVSFEVKAGYTMLAHDFYISKNMPHSLQEKIRLFVAQTDNIDTSACISNPPEVSFLLNGKGVEKRVNIAMDTGPQLPTNVTAQLKYGTNLLQVMGNFKGNYIIIIAFTGLVVPPEKPVLKDYLQSGVIEASPDSDIIEGPSRVSLSCPISRKRIKLPVKGQLCKHLQCFDFSNYVHINMRNPTWRCPHCNQPVCYPDIRLDQNMAKILKDVEHNAADVIIDAGGTWKVTKNTGETPEPVREIIHDLEDPMSLLNSGPVVFDLTGDDDAELEVFGDNKVEDRKPCMSDAQGQSNNNNTNKHPSNDDYSSIFDISDVIALDPEILSALGNTAPQPHQASNTGTGQQYSNLSQIPMSIDPMPVPVPFSQTPSPRDRPATTSTVFTIPNPSPQYSQVHASPVTPTGTYLGRTTSPRWNQTYQSQAPPMTTPYTSRKVSVPVTSQSPANVSSFVQSQHVPRVLSQPNNYGVRGLTSSHASTSRQHPSGPTVQSVSRLSDLVDVDLTVPDTSNWRPRMRGSLVPGSHSTALDHMIIRPSQQSQTSTRLNSSQPVQTPSVQTSQAQSPFTTAAYRTETVLGNRNHPVPAPPGIVRPTGPTS
Take B5: the binding entry in test [3], in test [4] and in test [2] was “binds” throughout.

B6: MOM1-P1 fused to GAL4-AD (domain or fragment, UniProt Q9M658 1-832)
chain: MKKDEKIGLTGRTIYTRSLAASIPASVEQETPGLRRSSRGTPSTKVITPASATRKSERLAPSPASVSKKSGGIVKNSTPSSLRRSNRGKTEVSLQSSKGSDNSIRKGDTSPDIEQRKDSVEESTDKIKPIMSARSYRALFRGKLKESEALVDASPNEEELVVVGCSRRIPAGNDDVQGKTDCPPPADAGSKRLPVDETSLDKGTDFPLKSVTETEKIVLDASPIVETGDDSVIGSPSENLETQKLQDGKTDCSPPANAESKTLPVGETSLEKEYPQKFQDDNTDCLPPANAESKRLPVGETSLEKDTDFPLKSTTETGKMVLYASPIVETRDDSVICSPSTNLETQKLLVSKTGLETDIVLPLKRKRDTAEIELDACATVANGDDHVMSSDGVIPSPSGCKNDNRPEMCNTCKKRQKVNGDCQNRSVCSCIVQPVEESDNVTQDMKETGPVTSREYEENGQIQHGKSSDPKFYSSVYPEYWVPVQLSDVQLEQYCQTLFSKSLSLSSLSKIDLGALEETLNSVRKTCDHPYVMDASLKQLLTKNLELHEILDVEIKASGKLHLLDKMLTHIKKNGLKAVVFYQATQTPEGLLLGNILEDFVGQRFGPKSYEHGIYSSKKNSAINNFNKESQCCVLLLETRACSQTIKLLRADAFILFGSSLNPSHDVKHVEKIKIESCSERTKIFRLYSVCTVEEKALILARQNKRQNKAVENLNRSLTHALLMWGASYLFDKLDHFHSSETPDSGVSFEQSIMDGVIHEFSSILSSKGGEENEVKLCLLLEAKHAQGTYSSDSTLFGEDHIKLSDEESPNIFWSKLLGGKNPMWKYPSDTP
Consider B6, for which the binding entry in test [1] and in test [2] was “no binding” throughout.
